Results reported in the supplement of paper PMC8728848.
Some of the results follow.

What was measured:
Assay in all cases: glycan array binding signal (z-score within array); higher = stronger binding
Details in all cases: glycan notation: IUPAC condensed, linker removed
[1] = target: GlcNAc(b1-3)Gal(b1-4)GlcNAc(b1-3)Gal(b1-4)GlcNAc(b1-2)[GlcNAc(b1-3)Gal(b1-4)GlcNAc(b1-3)Gal(b1-4)GlcNAc(b1-6)]Man(a1-6)[GlcNAc(b1-3)Gal(b1-4)GlcNAc(b1-3)Gal(b1-4)GlcNAc(b1-2)Man(a1-3)]Man(b1-4)GlcNAc(b1-4)[Fuc(a1-6)]GlcNAc
Method in brief: (§1)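 Glycan array binding is given as a within-array Z-score, which can be read as non-binding when negative. The arrays, 3228 of them, came from the Consortium for Functional Glycomics database and were retained only where the protein sequence was available. Z-scores were averaged across arrays of the same protein sequence at different concentrations or buffers and across linkers.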

[2] = target: GlcNAc(b1-3)Gal(b1-4)GlcNAc(b1-3)Gal(b1-4)GlcNAc(b1-3)Gal(b1-4)GlcNAc(b1-2)Man(a1-3)[GlcNAc(b1-3)Gal(b1-4)GlcNAc(b1-3)Gal(b1-4)GlcNAc(b1-3)Gal(b1-4)GlcNAc(b1-2)Man(a1-6)]Man(b1-4)GlcNAc(b1-4)GlcNAc
Method in brief: as §1

[3] = target: GlcNAc(b1-3)Gal(b1-4)GlcNAc(b1-3)Gal(b1-4)GlcNAc(b1-3)Gal(b1-4)GlcNAc(b1-2)Man(a1-3)[GlcNAc(b1-3)Gal(b1-4)GlcNAc(b1-3)Gal(b1-4)GlcNAc(b1-3)Gal(b1-4)GlcNAc(b1-2)Man(a1-6)]Man(b1-4)GlcNAc(b1-4)[Fuc(a1-6)]GlcNAc
Method in brief: as §1

[4] = target: GlcNAc(b1-3)Gal(b1-4)GlcNAc(b1-3)Gal(b1-4)GlcNAc(b1-3)Gal(b1-4)GlcNAc(b1-2)[GlcNAc(b1-3)Gal(b1-4)GlcNAc(b1-3)Gal(b1-4)GlcNAc(b1-3)Gal(b1-4)GlcNAc(b1-6)]Man(a1-6)[GlcNAc(b1-3)Gal(b1-4)GlcNAc(b1-3)Gal(b1-4)GlcNAc(b1-3)Gal(b1-4)GlcNAc(b1-2)Man(a1-3)]Man(b1-4)GlcNAc(b1-4)[Fuc(a1-6)]GlcNAc
Method in brief: as §1

[5] = target: GlcNAc(b1-3)Gal(b1-4)GlcNAc(b1-3)Gal(b1-4)GlcNAc(b1-3)Gal(b1-4)GlcNAc(b1-3)Gal(b1-4)GlcNAc(b1-2)Man(a1-3)[GlcNAc(b1-3)Gal(b1-4)GlcNAc(b1-3)Gal(b1-4)GlcNAc(b1-3)Gal(b1-4)GlcNAc(b1-3)Gal(b1-4)GlcNAc(b1-2)Man(a1-6)]Man(b1-4)GlcNAc(b1-4)GlcNAc
Method in brief: as §1

[6] = target: GlcNAc(b1-3)Gal(b1-4)GlcNAc(b1-3)Gal(b1-4)GlcNAc(b1-3)Gal(b1-4)GlcNAc(b1-3)Gal(b1-4)GlcNAc(b1-2)Man(a1-3)[GlcNAc(b1-3)Gal(b1-4)GlcNAc(b1-3)Gal(b1-4)GlcNAc(b1-3)Gal(b1-4)GlcNAc(b1-3)Gal(b1-4)GlcNAc(b1-2)Man(a1-6)]Man(b1-4)GlcNAc(b1-4)[Fuc(a1-6)]GlcNAc
Method in brief: as §1

[7] = target: GlcNAc(b1-3)Gal(b1-4)GlcNAc(b1-3)Gal(b1-4)GlcNAc(b1-3)Gal(b1-4)GlcNAc(b1-3)Gal(b1-4)GlcNAc(b1-2)[GlcNAc(b1-3)Gal(b1-4)GlcNAc(b1-3)Gal(b1-4)GlcNAc(b1-3)Gal(b1-4)GlcNAc(b1-3)Gal(b1-4)GlcNAc(b1-6)]Man(a1-6)[GlcNAc(b1-3)Gal(b1-4)GlcNAc(b1-3)Gal(b1-4)GlcNAc(b1-3)Gal(b1-4)GlcNAc(b1-3)Gal(b1-4)GlcNAc(b1-2)Man(a1-3)]Man(b1-4)GlcNAc(b1-4)[Fuc(a1-6)]GlcNAc
Method in brief: as §1

[8] = target: GlcNAc(b1-3)Gal(b1-4)GlcNAc(b1-3)Gal(b1-4)GlcNAc(b1-3)GalNAc
Method in brief: as §1

[9] = target: GlcNAc(b1-3)Gal(b1-4)GlcNAc(b1-3)GalNAc
Method in brief: as §1

[10] = target: GlcNAc(b1-3)Gal(b1-4)GlcNAc(b1-3)[GlcNAc(b1-3)Gal(b1-4)GlcNAc(b1-3)]GalNAc
Method in brief: as §1

[11] = target: GlcNAc(b1-3)Gal(b1-4)GlcNAc(b1-6)[Gal(b1-3)]GalNAc
Method in brief: as §1

[12] = target: GlcNAc(b1-3)Gal(b1-4)GlcNAc(b1-6)[GlcNAc(b1-3)Gal(b1-3)]GalNAc
Method in brief: as §1

[13] = target: GlcNAc(b1-3)Gal(b1-4)GlcNAc(b1-6)[GlcNAc(b1-3)]Gal(b1-4)GlcNAc
Method in brief: as §1

GlcNAc(b1-3)GalNAc = target: GlcNAc(b1-3)GalNAc
Method in brief: as §1

GlcNAc(b1-3)Man = target: GlcNAc(b1-3)Man
Method in brief: as §1

[14] = target: GlcNAc(b1-3)[GlcNAc(b1-4)][GlcNAc(b1-6)]GlcNAc
Method in brief: as §1

[15] = target: GlcNAc(b1-3)[GlcNAc(b1-6)]Gal(b1-4)GlcNAc
Method in brief: as §1

[16] = target: GlcNAc(b1-3)[GlcNAc(b1-6)]GalNAc
Method in brief: as §1

[17] = target: GlcNAc(b1-4)Gal(b1-4)GlcNAc
Method in brief: as §1

GlcNAc(b1-4)GlcNAc = target: GlcNAc(b1-4)GlcNAc
Method in brief: as §1

[18] = target: GlcNAc(b1-4)GlcNAc(b1-4)GlcNAc
Method in brief: as §1

[19] = target: GlcNAc(b1-4)GlcNAc(b1-4)GlcNAc(b1-4)GlcNAc(b1-4)GlcNAc
Method in brief: as §1

[20] = target: GlcNAc(b1-4)GlcNAc(b1-4)GlcNAc(b1-4)GlcNAc(b1-4)GlcNAc(b1-4)GlcNAc
Method in brief: as §1

[21] = target: GlcNAc(b1-4)[GlcNAc(b1-6)]GalNAc
Method in brief: as §1

[22] = target: GlcNAc(b1-6)Gal(b1-4)GlcNAc
Method in brief: as §1

GlcNAc(b1-6)GalNAc = target: GlcNAc(b1-6)GalNAc
Method in brief: as §1

[23] = target: GlcNAc6S(b1-3)Gal(b1-4)GlcNAc
Method in brief: as §1

Kdn(a2-3)Gal(b1-3)GalNAc = target: Kdn(a2-3)Gal(b1-3)GalNAc
Method in brief: as §1

Kdn(a2-3)Gal(b1-3)GlcNAc = target: Kdn(a2-3)Gal(b1-3)GlcNAc
Method in brief: as §1

Kdn(a2-3)Gal(b1-4)Glc = target: Kdn(a2-3)Gal(b1-4)Glc
Method in brief: as §1

Kdn(a2-3)Gal(b1-4)GlcNAc = target: Kdn(a2-3)Gal(b1-4)GlcNAc
Method in brief: as §1

[24] = target: Kdn(a2-3)Gal(b1-4)[Fuc(a1-3)]GlcNAc
Method in brief: as §1

Kdn(a2-6)Gal(b1-4)GlcNAc = target: Kdn(a2-6)Gal(b1-4)GlcNAc
Method in brief: as §1

[25] = target: Man(a1-2)Man(a1-2)Man(a1-3)Man
Method in brief: as §1

[26] = target: Man(a1-2)Man(a1-2)Man(a1-6)[Man(a1-3)]Man
Method in brief: as §1

Man(a1-2)Man(a1-3)Man = target: Man(a1-2)Man(a1-3)Man
Method in brief: as §1

[27] = target: Man(a1-2)Man(a1-3)[Man(a1-2)Man(a1-6)]Man
Method in brief: as §1

[28] = target: Man(a1-2)Man(a1-3)[Man(a1-2)Man(a1-6)]Man(a1-6)[Man(a1-2)Man(a1-2)Man(a1-3)]Man
Method in brief: as §1

B1: FliD (Clostridium difficile) (protein)
chain: MSSISPVRVTGLSGNFDMEGIIEASMIRDKEKVNKAKQDQQIVKWKQEIYRDIIKESKNLYDKYLNGDSPNSITNKKAYSATRITSSDESIIVAKGSAGAEKINYQFAVSQMAEPAKVTIKLNSSDPIVQQFPPNASGASSLNIGGVNIPISEQDTTSTIVSKINSLCADNDIRASYSEMTGELIISRKQTGSSSDIDLKVIGNDSLAGQIASDNGITFTTDASGTKSAVVYGKNLEADVTDDQGRVTHISKEQNSFKIDNIDYNVNSKGSAKLVSVTDTEEATKNMKAFVDDYNALMDKVYGLVTTKKSKDYPPLTDEQKDDMTTEEIEKWEKKAKEGILRNDDELRAFVEDIQSMFFGDADTIIALRKLGISEHENYNKKGQISFNADTFSKALIDDSDKVYKALAGYSSNYDDKGMFEKLKKIVFEYSGSSASKLTKKAGMENSSSASQNVYSKQIAEQERNISRLVEKMNDKEKRLYAKYSALESLLNKYSSQMNYFSQAQGN
Q: Which results are given for B1?
A: glycan array binding signal (z-score) [1]: -0.202; glycan array binding signal (z-score) [2]: -0.213; glycan array binding signal (z-score) [3]: -0.116; glycan array binding signal (z-score) [4]: -0.16; glycan array binding signal (z-score) [5]: -0.101; glycan array binding signal (z-score) [6]: -0.211; glycan array binding signal (z-score) [7]: -0.178; glycan array binding signal (z-score) [8]: -0.267; glycan array binding signal (z-score) [9]: -0.132; glycan array binding signal (z-score) [10]: -0.249; glycan array binding signal (z-score) [11]: -0.24; glycan array binding signal (z-score) [12]: -0.192; glycan array binding signal (z-score) [13]: -0.158; glycan array binding signal (z-score) (GlcNAc(b1-3)GalNAc): -0.178; glycan array binding signal (z-score) (GlcNAc(b1-3)Man): -0.129; glycan array binding signal (z-score) [14]: -0.259; glycan array binding signal (z-score) [15]: -0.024; glycan array binding signal (z-score) [16]: -0.188; glycan array binding signal (z-score) [17]: -0.232; glycan array binding signal (z-score) (GlcNAc(b1-4)GlcNAc): -0.162; glycan array binding signal (z-score) [18]: -0.054; glycan array binding signal (z-score) [19]: -0.164; glycan array binding signal (z-score) [20]: 0.011; glycan array binding signal (z-score) [21]: -0.145; glycan array binding signal (z-score) [22]: 0.038; glycan array binding signal (z-score) (GlcNAc(b1-6)GalNAc): -0.013; glycan array binding signal (z-score) [23]: -0.077; glycan array binding signal (z-score) (Kdn(a2-3)Gal(b1-3)GalNAc): 0.086; glycan array binding signal (z-score) (Kdn(a2-3)Gal(b1-3)GlcNAc): -0.233; glycan array binding signal (z-score) (Kdn(a2-3)Gal(b1-4)Glc): -0.172; glycan array binding signal (z-score) (Kdn(a2-3)Gal(b1-4)GlcNAc): -0.204; glycan array binding signal (z-score) [24]: 0.919; glycan array binding signal (z-score) (Kdn(a2-6)Gal(b1-4)GlcNAc): -0.101; glycan array binding signal (z-score) [25]: -0.247; glycan array binding signal (z-score) [26]: -0.014; glycan array binding signal (z-score) (Man(a1-2)Man(a1-3)Man): -0.195; glycan array binding signal (z-score) [27]: -0.196; glycan array binding signal (z-score) [28]: -0.075
